Test results reported in the supplement of paper PMC4166925.
± gives the standard deviation of the averaged measurements. In all, about 33,000 sequences were measured (“E-score (dimensionless, -0.5 to 0.5)”: median about -0.046, highest 2% from about 0.36 on). This is one part of the list.

What follows are sequences tested on T1, SpTbr T-box DNA-binding domain (GST fusion) (assay: PBM E-score of 8-mer (E-score (dimensionless, -0.5 to 0.5)); Tbr is Tbrain of the sea star Patiria miniata (Pm) or the sea urchin Strongylocentrotus purpuratus (Sp); higher = stronger binding preference; most listed sequences are background and not binding sites). Conditions: the construct has about 5 more residues each side.
T1 sequence: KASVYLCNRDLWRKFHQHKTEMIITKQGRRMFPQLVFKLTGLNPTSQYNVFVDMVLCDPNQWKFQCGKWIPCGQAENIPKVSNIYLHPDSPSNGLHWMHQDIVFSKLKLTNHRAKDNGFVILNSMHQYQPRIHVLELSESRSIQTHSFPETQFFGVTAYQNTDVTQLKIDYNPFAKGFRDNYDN
How it was run: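 Universal Agilent oligonucleotide arrays, made double-stranded by primer extension, were incubated with 200 nM GST-fused Tbr T-box DNA-binding domain in PBS (pH 7.5). The protein was expressed in BL21 E. coli at 20 °C and purified by glutathione affinity chromatography. After scanning and quantification, the Universal PBM Analysis Suite assigned an enrichment E-score to each ungapped 8-mer, averaged over duplicate arrays.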

Sequence | PBM E-score of 8-mer
CGTGCCAA | 0.306 ± 0.03
AGTGGTGG | 0.0787 ± 0.014
GAGCTGTA | -0.0913 ± 0.024
CCCTGTTA | 0.0927 ± 0.079
GGCGGCAC | 0.203 ± 0.034
CATGTGCG | 0.269 ± 0.025
AAATAAAT | -0.135 ± 0.015
TATAGATA | -0.198 ± 0.026
CTGGGTCA | -0.0604 ± 0.044
ATTGTAAA | 0.0303 ± 0.04
ATTCAACG | 0.00085 ± 0.022
ACCTATAC | 0.0942 ± 0.016
ATGGACTC | -0.156 ± 0.017
GGCCTGCA | -0.247 ± 0.045
ATACTTAG | -0.152 ± 0.025
AGTTTTCG | 0.115 ± 0.0031
GGGGCAAC | -0.169 ± 0.047
CCCTCATA | 0.0313 ± 0.072
CTAAACGC | -0.00247 ± 0.068
GCATGGGC | -0.0364 ± 0.0065
ATTTCTGA | -0.236 ± 0.077
TACCACCA | 0.0959 ± 0.014
AAGCCCCC | -0.305 ± 0.025
AGACTAAC | 0.0868 ± 0.02
ACCGTAAC | -0.00357 ± 0.013

Sequence | PBM E-score of 8-mer
AACCAGAT | -0.0824 ± 0.0082
CGGACCAA | -0.345 ± 0.038
GGGAGTTA | -0.0251 ± 0.025
CGGGTCTC | -0.0472 ± 0.0069
TGCTCGAA | -0.2603 ± 0.0024
CCCTAAAC | -0.153 ± 0.041
CGCGAGCA | 0.275 ± 0.036
ATAGAATG | -0.237 ± 0.044
GTTTCTGA | -0.137 ± 0.012
CATGACTA | -0.196 ± 0.068
AATTAATG | -0.238 ± 0.036
ACCTATCC | -0.0393 ± 0.065
CACTTAGC | 0.174 ± 0.056
ACTTGTGG | 0.205 ± 0.00054
AAATTTTC | -0.0749 ± 0.026
CCTGTTCA | 0.101 ± 0.00044
AAGGATCG | -0.164 ± 0.067
CCCACAAG | -0.153 ± 0.035
CAAGGAGC | -0.195 ± 0.082
AAATGACA | 0.151 ± 0.004
ATTCCTGA | -0.225 ± 0.011
CTGCTACA | -0.0452 ± 0.072
CGCGGAGA | 0.00232 ± 0.0055
CCGTGTCA | 0.176 ± 0.013
TCGACTAA | -0.0107 ± 0.036

Sequence | PBM E-score of 8-mer
CAAACTTC | -0.197 ± 0.064
AGGTACTA | -0.105 ± 0.09
CCCTGGGC | -0.111 ± 0.013
CCGGGGCC | -0.153 ± 0.042
CCCCCCCC | -0.0653 ± 0.059
TCGAGACA | -0.0938 ± 0.056
AAAACAGC | 0.152 ± 0.041
CCCCGGTA | -0.125 ± 0.033
CACCCCCC | 0.184 ± 0.003
AGTATCCG | -0.347 ± 0.051
ATATCCGA | -0.0578 ± 0.011
ACGGAGTC | 0.00717 ± 0.046
AACCCTAG | 0.146 ± 0.034
TGTCGCAA | 0.207 ± 0.026
GTCCGATA | -0.0395 ± 0.019
CACGGACC | -0.133 ± 0.031
CCGTAGTC | -0.182 ± 0.055
GAATGAGC | -0.191 ± 0.038
GAGCTGGC | -0.0512 ± 0.033
GAGGACGC | 0.0247 ± 0.027
ATTGTGGC | 0.00409 ± 0.062
AAACGACC | 0.0563 ± 0.019
AAACCTCA | -0.187 ± 0.087
CGTCCAGC | -0.207 ± 0.04
GCATGAGC | -0.0917 ± 0.011

Sequence | PBM E-score of 8-mer
ACACAGGA | -0.168 ± 0.018
GCTCCAAA | -0.203 ± 0.071
ATTAATAA | -0.0848 ± 0.078
ATCTCCGG | 0.0811 ± 0.031
ATCCTATG | -0.248 ± 0.013
AACGAGCA | 0.0866 ± 0.091
ATTTAAGG | -0.135 ± 0.075
TGAGGGAA | -0.0735 ± 0.021
AATCATGG | -0.0493 ± 0.023
AATAGTCA | 0.0181 ± 0.026
AGCAGGCC | -0.13 ± 0.05
AACGTCTC | 0.031 ± 0.02
CTACGCTA | -0.0759 ± 0.0034
ATCTCGAA | -0.155 ± 0.035
ATTTCTGG | -0.13 ± 0.0057
GGAGGATA | -0.24 ± 0.02
CTGTGAGC | 0.225 ± 0.0048
TACACGTA | 0.0515 ± 0.041
AATGAGGT | 0.178 ± 0.073
CCCTACAC | 0.0736 ± 0.018
CGTCATCA | 0.227 ± 0.019
ATAATAGC | -0.085 ± 0.017
CAACGCAC | 0.137 ± 0.024
CTAGTCTC | -0.0209 ± 0.025
CGTGGAAC | 0.157 ± 0.043

Sequence | PBM E-score of 8-mer
ATTGTGGA | 0.0374 ± 0.11
ACGTGAAC | 0.126 ± 0.031
CAGATGCC | -0.248 ± 0.044
CCATTCAG | 0.0504 ± 0.014
GACGGGGA | -0.00484 ± 0.006
CGCGGGCC | -0.00492 ± 0.0016
ATGTAGTC | -0.271 ± 0.04
CACTACAG | 0.00822 ± 0.021
GGTAACCA | -0.0926 ± 0.038
CGGAGTAC | -0.141 ± 0.013
GCTTTGAA | -0.185 ± 0.01
TGATCCCA | -0.00177 ± 0.0032
AAAAGCCA | -0.154 ± 0.04
CCCGCAGG | -0.0545 ± 0.0061
TAGTACAA | -0.0337 ± 0.046
CCCGTGAG | -0.0328 ± 0.0095
CACTTCTA | 0.304 ± 0.022
CTGATCAC | 0.202 ± 0.01
AAGAACGA | -0.228 ± 0.0065
CATCGGGG | -0.0653 ± 0.086
AAAGGCTG | 0.0423 ± 0.004
CGCACTTA | 0.329 ± 0.0023
TCGGTACA | -0.161 ± 0.11
ACGTCAGG | -0.127 ± 0.05
AGGTCCTA | -0.0526 ± 0.058

Sequence | PBM E-score of 8-mer
GCTTGGTA | -0.117 ± 0.011
CATGGTAC | -0.0349 ± 0.043
GGATGGGA | -0.354 ± 0.037
ACGTCAAG | 0.0322 ± 0.037
AAGGCACA | -0.16 ± 0.04
GGTCATAA | -0.216 ± 0.045
CCTCCCCC | -0.0238 ± 0.056
CATCGAGG | -0.0571 ± 0.0048
AGTGCCCC | -0.185 ± 0.025
GTGCTCAA | -0.0324 ± 0.11
ACCCACTA | -0.00841 ± 0.12
TAGGGTAA | -0.151 ± 0.034
ACGTGAAA | 0.121 ± 0.014
CGCCATTC | 0.21 ± 0.011
ATCATGAT | -0.0317 ± 0.029
GGCGCGAC | 0.369 ± 0.017
AGAAAGTA | -0.102 ± 0.082
CCGTGCAC | -0.0263 ± 0.1
AAATGCCA | 0.00246 ± 0.043
ACGTGTAA | 0.333 ± 0.053
AAGCGCAG | 0.0307 ± 0.015
CAAGGACC | -0.213 ± 0.012
ATCCTCCC | -0.04 ± 0.03
AGGCGGGG | 0.0193 ± 0.05
CATTACCA | -0.0474 ± 0.028

Sequence | PBM E-score of 8-mer
TCTCTCCA | -0.072 ± 0.044
TCCCAGAA | -0.0607 ± 0.066
CCTTACTA | 0.0201 ± 0.027
ACACTGTA | 0.172 ± 0.036
ATTATTTA | -0.104 ± 0.043
ATATTCGA | -0.0272 ± 0.061
AGCGTACC | -0.2 ± 0.054
CCCGAATC | -0.0381 ± 0.015
GTATGCGA | -0.102 ± 0.054
TCGCCTCA | 0.164 ± 0.032
CTCCGTTA | 0.0633 ± 0.0074
AATCAATC | 0.0621 ± 0.074
GATGTTAA | -0.0106 ± 0.055
ACAGATAA | 0.0988 ± 0.072
AGAGTGTG | 0.375 ± 0.022
ACAGTTAG | 0.0873 ± 0.0094
ACACATAG | 0.306 ± 0.018
GACTCGTA | -0.123 ± 0.017
CACTATGG | 0.0787 ± 0.025
CTTTACGC | 0.0326 ± 0.021
CAATCCAG | -0.021 ± 0.032
CAAAGCGG | -0.173 ± 0.015
